Data published in the RNAGym collection of RNA variant scans (doi:10.7554/elife.90254).
The source gives no read counts; variants with many changes may rest on few reads.

B1: LINE1-mini (parent)
chain: GGCAGAGCUCAACACAGCGUGGCAAAGUGGCUGUGGCUAGACUGCC

Variants of: B1
Assay: self-cleavage, relative activity (ratio to wild type); higher = more cleavage; in vitro, sequencing; the parent is a self-cleaving ribozyme
GGCAGAGCUCAACACAGCAAGGCGAAGCGGCUGUGGCUAAACUGCC [G19A U20A A24G U28C G40A] gave a self-cleavage of 0.07.
GGCAGCGCUCAACACAGCUUGGCAAAGUGUCUGUGGCUAGACUGCC [A6C G19U G30U] gave a self-cleavage of 0.55.
Variant GGCAGUGCUCAAUACAGCGUGGCAAAGUGGCUGUGGCUACACUGCC [A6U C13U G40C] has a self-cleavage of 0.1.
GGCAGAGCUGAACACAGCGCGGCAAAGUGGCUGUGGCCAAACUGCC [C10G U20C U38C G40A] gave a self-cleavage of 0.01.
GGCAGAGCUCUACACAGCGUGGCAAAGUGGCUGUUGCUAGAUUGCC [A11U G35U C42U] showed a self-cleavage of 0.04.
Work on GGCAGAGGUCAAUACAGCGUGGCCAAGUGGCUGUGGCUAAACUGCC [C8G C13U A24C G40A] yielded a self-cleavage of 0.02.
In the case of GGCAUAGCUCAACACAGCGUGGCAAAGUGGCUGUGACUAGACUGGC [G5U G36A C45G], the self-cleavage is reported as 0.08.
With GGCAGAGCUCAACUCAGCGUGGCAAAGUGGCUGUGGCUAGGCGGCC [A14U A41G U43G] the self-cleavage was 0.
GGCAAAGCUCAACACAGCGUGGCAAAGUGGCUGUGGGUAGUGUACC [G5A C37G A41U C42G G44A] showed a self-cleavage of 0.
In the case of GGCAGAGCUUACCACAGCGUGGCAAAUUGGCUGUGGCGAGACUGCC [C10U A12C G27U U38G], the self-cleavage is reported as 0.01.
GGCAUAGCUCAAAACAGCGUGGAAAAGUAGCUGUGGCUAGACUGCU [G5U C13A C23A G29A C46U] showed a self-cleavage of 0.11.
Work on GGCAUAGCUCAAAAGAGCGUGGCAAAGUGGCUGCGGCUAGACUGCC [G5U C13A C15G U34C] yielded a self-cleavage of 0.05.
For GCCAGAGCUCAACACAGCGUGGCAAAGUGGCUCUGGGUAGCCUGCC [G2C G33C C37G A41C], the self-cleavage was 0.04.
Variant GGCAGAGCUCAACAUUGAGUGGUAAAGUGGCUGUGGCUAGACUGCC [C15U A16U C18A C23U] has a self-cleavage of 0.01.
With GGCAGAGCUCAAAACAUCGUGGAUAAGUGGCUGUGGCUAGACUGUC [C13A G17U C23A A24U C45U] the self-cleavage was 0.02.
For GGCAGAGCUCAACACAGCGUGGCAAAGUCGCUGUGGGGAGACUGAC [G29C C37G U38G C45A], the self-cleavage was 0.01.
In the case of GGCAGAUCUGAACACAGCGUGGCAAAGUGGCUGUGGCUUGACUGCC [G7U C10G A39U], the self-cleavage is reported as 0.01.
With CGCAGAGCUCAACACAGCGUGGCAAUGUGGCUGUUGCUAGACUGCC [G1C A26U G35U] the self-cleavage was 0.2.
GACAGCGCUGAACACAGCCUGGCAAAGUGGCUGUGGCUAGACCGCC [G2A A6C C10G G19C U43C] gave a self-cleavage of 0.02.
Work on GGGAGAGCUCAAUACAGCGUGGCAAAGUGGCUGCGGCUAGACCGCC [C3G C13U U34C U43C] yielded a self-cleavage of 0.09.
Work on UGCAGAGCUCAACACAGCGUGGCAAAGUGGCAGUGGUUAGACUGCC [G1U U32A C37U] yielded a self-cleavage of 0.05.
For GGCAGAGCUCAAUACAGCGUGGCAAAGUGGCUGUGGCAAGGCUGCC [C13U U38A A41G], the self-cleavage was 0.07.
GGCAGAGCUCAACACAGCGUGGCAAAGUGGCUGUGGCUAGAUUGGA [C42U C45G C46A] showed a self-cleavage of 0.04.
Variant GGCAGAGCUCAACACAGCGUGACAAAGUGGCUUUGGCUAGAAUGCC [G22A G33U C42A] has a self-cleavage of 0.08.
In the case of GACAGAGGUCAACACAGCGUGGCAAUGUGGCUGUGGCUAGACUGCC [G2A C8G A26U], the self-cleavage is reported as 0.1.
With GGCAGAGUUCAACACAGGGUGGCAAAGUCGCUGUGGCUUGACUGCU [C8U C18G G29C A39U C46U] the self-cleavage was 0.01.
GGCCGAGCCCAACACAGCGUGGCAGAGUGGCUGUGGCGAGACUGCC [A4C U9C A25G U38G] gave a self-cleavage of 0.01.
GGCAGAGCUCAACACGCCGUGACAAAGUUGCUGUGGCUCGACUGCC [A16G G17C G22A G29U A39C] showed a self-cleavage of 0.06.
In the case of UGCAGAGCUCAACACAGCGUGGCAAAGUUGCUGUUGCUAGACUGCC [G1U G29U G35U], the self-cleavage is reported as 0.06.
Variant GACAGAGCUCAACACAGCGUGGCAAAGUGGCUGAGGCUAGACGGCC [G2A U34A U43G] has a self-cleavage of 0.03.
Work on GUCAGAGCUCAACACGGCGUGGCAGAGUGGCUGUGGCUCGACUGCC [G2U A16G A25G A39C] yielded a self-cleavage of 0.02.
For GGGAGAGCUCAACACUGCAUGUCAAAGUGGCUGUGGCUAGACUGCC [C3G A16U G19A G22U], the self-cleavage was 0.06.
GGCCGAGCUCAACAAAGCGUGGCAAACUGGCUCUGGCUCGACUGCC [A4C C15A G27C G33C A39C] showed a self-cleavage of 0.01.
Work on GGCAGAGCUCGACACCGCGUCGCAAAGUGGCUGUGGCUAGACUGCA [A11G A16C G21C C46A] yielded a self-cleavage of 0.01.
In the case of GUCAGAGCUCAACACAUCGUGGCAAAGUGGCAGUGGCUAGACUGCC [G2U G17U U32A], the self-cleavage is reported as 0.01.
For GGCAGAGCUCAAAACAGUGUGGCAAAGUGGCUGUGGCUAAACUACC [C13A C18U G40A G44A], the self-cleavage was 0.03.
Work on GGCAGAGCUCAACACAGCGUGGCUAAGUGUAUGCGGCUAGACUGCC [A24U G30U C31A U34C] yielded a self-cleavage of 0.21.
Variant GGCAUAGCUCGACACAGAGUGGCAAAGUGGCUGUGGCUAGACUCCC [G5U A11G C18A G44C] has a self-cleavage of 0.03.
Work on GGUAGAGAUCAACACAGCGUGGCAAAGUGGUUGUGGCUAGACUGCC [C3U C8A C31U] yielded a self-cleavage of 2.62.
In the case of GGCAGAGCUAAACACAGAGUGGCAAAGUGGCUGUGGCGUGACUGCC [C10A C18A U38G A39U], the self-cleavage is reported as 0.13.
GGCAGAGGGCAACACAACGUGGCAAAGUGGCUGUGGCUAGACUGCC [C8G U9G G17A] showed a self-cleavage of 0.07.
For GGCACAGCUCAACACAGCGUGGCAAAAUGGCUGUGGCUAGAUUGCC [G5C G27A C42U], the self-cleavage was 0.07.
GGCAGAGCUCAACCGAGCGUACCAAAGUGGAUGUGGCUAGACUGCC [A14C C15G G21A G22C C31A] gave a self-cleavage of 0.01.
GGCAGAGCUCAACACAGCGUGGCAAAGGGGCUGUGGCUAAACUGGC [U28G G40A C45G] gave a self-cleavage of 0.01.
For UGCAGAGCUCAACAUAGCGUGGCAAAGUGCCUGUGGCGAGACUGCC [G1U C15U G30C U38G], the self-cleavage was 0.01.
GGCAGAGCUCAACACAGCGUAGCAAAGUGGCUCUGGCUAGCCUGCC [G21A G33C A41C] showed a self-cleavage of 0.03.
GGCAGAGCUCAACACAGCGUUGCAAAGCGGCUGUGGCCUGACUGCC [G21U U28C U38C A39U] gave a self-cleavage of 0.54.
In the case of GGUAGAGAUCAACACAGCGUGGCAAGGUGGCCGUGGCUAGACUGCC [C3U C8A A26G U32C], the self-cleavage is reported as 0.17.
GGCAGAUCUCAACACAGCGUGGCAAAGUGGCUGUGGCUAGACGACC [G7U U43G G44A] showed a self-cleavage of 0.06.
Work on GACAGAGCGCAACACAGCGUGGAAAAGUGGCUGUUGCUAGCCUGCC [G2A U9G C23A G35U A41C] yielded a self-cleavage of 0.06.
With GUCCGAGGUCAACACAGCGUGGCAAAGUGGCUGUGGAUAGACUGCC [G2U A4C C8G C37A] the self-cleavage was 0.03.
In the case of GGCAGAUCUCAACACAGCGUGGCAAAGUUGCAGUGGCUAGACUGCC [G7U G29U U32A], the self-cleavage is reported as 0.07.
With GGCAGAGCUCAACACAGCGUGGCUAGGUCGCUGUGGCUAGACUGCC [A24U A26G G29C] the self-cleavage was 0.34.
For GUCAGAGCUCAAAAUAGCGUUGCAAAGUGGCUAUGGCUAGACUGCC [G2U C13A C15U G21U G33A], the self-cleavage was 0.03.
With GGCAGAGCUAAACACAGCGUGGCCAAUUGGCUGUGGCUAGACUGCC [C10A A24C G27U] the self-cleavage was 0.05.
Work on GGCAGAGCCCAACACAGCGUGGCAAACUGGCUGUCGGUAGACUGCC [U9C G27C G35C C37G] yielded a self-cleavage of 0.01.
